These results are taken from PMC12136788.

T1: UNK ZnF1-6 (called full-length) (human, UniProt Q9C0B0 30-357)
T1 sequence: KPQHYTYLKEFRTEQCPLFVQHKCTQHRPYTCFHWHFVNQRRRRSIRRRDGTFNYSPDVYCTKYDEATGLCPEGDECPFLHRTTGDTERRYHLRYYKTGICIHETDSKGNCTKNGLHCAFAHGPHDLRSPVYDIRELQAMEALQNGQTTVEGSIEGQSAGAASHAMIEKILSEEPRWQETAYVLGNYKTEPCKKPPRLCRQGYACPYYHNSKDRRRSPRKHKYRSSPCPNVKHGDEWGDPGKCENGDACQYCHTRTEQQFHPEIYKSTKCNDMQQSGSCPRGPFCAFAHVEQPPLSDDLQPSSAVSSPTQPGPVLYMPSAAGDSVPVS

B1: chr1:94529602:94529703:-|3pUTR|ENSG00000117525|msi1|total|mutant (ssRNA)
RNA: GGGAGUUCUACAGUCCGACGAUCUGGAAGGAAAUUGGGUGCAUUUCCCGGACUUUUCUAACAUAUGUCUAUAAUACCGUGUUCCGGUUCUUUUUUUUUUCAGGAAUACAUUUGGAAAUUCAAAACAAUUGGCAAACUUUGUAUCAACAGAGGAUUGAGCAUCA
B2: chr6:122456482:122456612:-|CDS|ENSG00000111897|unk|total|mutant (ssRNA)
RNA: GGGAGUUCUACAGUCCGACGAUCUGCUUUGGUUUGGCUAUGUUCUAUCUUCUUCUCUCUUUACUAAUGAUCAAAGUGAAGAGCCGCAGUGAUCCCCGAGCUGCAGUGCACAAUGGGUAAGUUUUUAAAUAAGCUUCAAUAUAACAACAGAGGAUUGAGCAUCA
B3: ENSG00000136451:be:win_51|CDS|ENSG00000136451|bound_else_gene|NA|bound_elsewhere_windowed (ssRNA)
RNA: GGGAGUUCUACAGUCCGACGAUCUCACCAACAGCAGGCAGCACAGAACAGCUUGCUGCCCCUCCUGAGCUCUGCCGUGGAGCCCCCUGAUCAGAAACCAUUGCUUCCAAUACCAAUAACUCAGAAACCUCAGGGUGCACCAGACAACAGAGGAUUGAGCAUCA
B4: ENSG00000198589:be:win_751|CDS|ENSG00000198589|bound_else_gene|NA|bound_elsewhere_windowed (ssRNA)
RNA: GGGAGUUCUACAGUCCGACGAUCAAACCAUAUUUGUAUUGUUUCAGAACCAGCAAAGGUCUUGGCUAUUCUGCUCAUUUUGUUGGAGGCUGUUUGAUUGUAACAUCAAUAAAGUCAAAAGGAAAAGGCUUUCAACACUGUGUGCAACAGAGGAUUGAGCAUCA
B5: chr3:9757346:9757621:-|three_prime_utr|ENSG00000134072|control|control|control (ssRNA)
RNA: GGGAGUUCUACAGUCCGACGAUCGUCGAGACUGCUGCGUGGAGCCGGGCACAGAACUGUCCCCCACACUGCCCCACCAGCUCUAGGGCCCUGGACCUCGGGUCAUGAUCCUCUGCGUGGGAGGGCUUGGGGGCAGCCUGCUCCCAACAGAGGAUUGAGCAUCA
B6: chr4:186618492:186618593:-|CDS|ENSG00000083857|msi1|FALSE|unique (ssRNA)
RNA: GGGAGUUCUACAGUCCGACGAUCGUAAUCACUACAAAGGAGAGCCUCAUUGGCUUGGAAAAUGAAUUCUUCACUUUCUUUGUUAGAGCUGUGGAUAAUGGGUCUCCAUCAAAAGAAUCUGUUGUUCUUGUCUAUGUUAAAAUCCAACAGAGGAUUGAGCAUCA
B7: chr1:113590523:113590624:+|CDS|ENSG00000081026|unk|total|mutant (ssRNA)
RNA: GGGAGUUCUACAGUCCGACGAUCUCAUCUGACUGGAUGAAGACUGUUCCAAGUUACAACCAAACAAACCGCUCCAUGGACUUCCGAAAUUAUAUGAUGAGAGAUGAGACUCUGGAACCACUGCCCAAAAACUGGGAAAUGGCCCAACAGAGGAUUGAGCAUCA
B8: chr12:48147896:48148005:-|3pUTR|ENSG00000177981|unk|total|mutant (ssRNA)
RNA: GGGAGUUCUACAGUCCGACGAUCCUGCUUCCGUGAACGAUACUCUUUCAUUUUUCUAAAUCCGAUCAAGUUGUUAUUGAUUUCCGAUGACUUGUAUGCAAAUUUGAAAAACUUUUUUUUUUAAAGCUGAUUGGGAACUACAAACAACAGAGGAUUGAGCAUCA
B9: chr15:89832191:89832292:-|3pUTR|ENSG00000157823|msi1|total|mutant (ssRNA)
RNA: GGGAGUUCUACAGUCCGACGAUCCCCGGCCGCUGGAACCACAGGCACGCAACCACCACUCCUGGCCCGUUUUAUUUUUUCCGCCGAAUAAGGUCUCACUAUGUUGCACAGGCUGGUCUCUAACUCCUUACCUCAAGCCAUCCUCAACAGAGGAUUGAGCAUCA
B10: chr1:86742159:86742388:+|CDS|ENSG00000097033|unk|total|mutant (ssRNA)
RNA: GGGAGUUCUACAGUCCGACGAUCUGUACCAUCAGUUUUACCAAAUGCGAUUGGUUCUUCUGCCAUGGCUUCAACAAGUGGCCCCGUAAUCACCUCUCCUUCCAACCUCAGUGACCUUAAGGAGUGCCGUGGCAGCAGAAAGGCCAACAGAGGAUUGAGCAUCA
B11: chr8:143040838:143043334:-|three_prime_utr|ENSG00000291309|control|control|control (ssRNA)
RNA: GGGAGUUCUACAGUCCGACGAUCACCACUUUUUUCAGAGCUGGGCCUCAGAGACCAGGCCCCACCACUGGCUGCUUGGGACCUAGGGUCAUAGAGAAACCGUGGCCCAGGGCGGGAGUCCCCAGCUCCAUCCAGCUUGCCACUCAACAGAGGAUUGAGCAUCA
B12: chr15:41517175:41517691:-|three_prime_utr|ENSG00000103932|control|control|control (ssRNA)
RNA: GGGAGUUCUACAGUCCGACGAUCGUCAGCACUACCUCCAGAGACUGACUUCAACAGUGCUCCAAAAUGGGGUAUCAGAGACCUAGGAUAGUUGAUAUAGAUGGAAAGAUGGGUACGUUGUCCUGUAUCCAGCCUUUCAACAGACAACAGAGGAUUGAGCAUCA
B13: chr22:46256563:46263322:-|CDS|ENSG00000130943|control|control|control (ssRNA)
RNA: GGGAGUUCUACAGUCCGACGAUCAAUUCGGUUUUACUUGUCGAACCCAGAAGACUUCAUUCCCUUUCAUGCAGUUUCUCAGGUAGAUCACAUUAUGAGGAUAAUUUUGGGUUUCCUGUUAUUUCUGACAAUUUUGAAGACCCUCAACAGAGGAUUGAGCAUCA
B14: ENSG00000107863:be:win_1001|CDS|ENSG00000107863|bound_else_gene|NA|bound_elsewhere_windowed (ssRNA)
RNA: GGGAGUUCUACAGUCCGACGAUCCAGGCUCCAGAUCACUGGAACCUUCUGGAAUUUUACUUAAGUCUGGAAAUUACAGUGGACAUUCUGAUGGAAUCUCAAGCAGCAGAUCUCAAGCUGUGGAGGCUCCCUCUGUAUCUGUUACAACAGAGGAUUGAGCAUCA

Some of the results follow.

The assay addresses T1, UNK ZnF1-6 (called full-length). As to the kind of experiment: nsRBNS (natural sequence RNA bind-n-seq); RBNS binding buffer (assumed for nsRBNS): 25 mM Tris pH 7.5, 150 mM KCl, 3 mM MgCl2, 0.01% Triton X-100, 500 ug/ml BSA, 20 U/ml SUPERase-In, 4 C; UNK is unkempt and MSI1 is Musashi-1; names of the RNAs are library labels; protein concentration not given here; high values mean tight binding.
In turn, B1 came in with a binding signal of 0.606 enrichment R.

In the case of B2, the binding signal was 0.461 enrichment R.

Regarding B3, the binding signal was 0.676 enrichment R.

B4 came in with a binding signal of 0.358 enrichment R.

As for B5, the binding signal is 1.07 enrichment R.

B6 showed a binding signal of 0.487 enrichment R.

With B7, the binding signal stood at 0.474 enrichment R.

On to B8, for which the binding signal was found to be 0.502 enrichment R.

B9: the binding signal worked out at 0.904 enrichment R.

Regarding B10, the binding signal stood at 0.505 enrichment R.

As to B11, the binding signal amounted to 0.706 enrichment R.

Consider B12, for which the binding signal came out at 1.32 enrichment R.

The molecule B13 returned a binding signal of 0.376 enrichment R.

As to B14, the binding signal was determined as 0.745 enrichment R.
